Assay results from article PMC12820563.
Some of the results follow. The list includes weakly bound sequences.

What follows are sequences tested against T1, MBP-FoxP3dN (UniProt Q99JB6) (assay: PD-seq (MBP pull-down with sequencing)). Conditions: 20 mM Tris-HCl pH 7.5, 100 mM NaCl, 1.5 mM MgCl2, 0.4 uM protein, 0.1 uM dsDNA library, 30 min, room temperature, amylose pull-down; high values mean tight binding; double strand, one strand shown.
T1 sequence: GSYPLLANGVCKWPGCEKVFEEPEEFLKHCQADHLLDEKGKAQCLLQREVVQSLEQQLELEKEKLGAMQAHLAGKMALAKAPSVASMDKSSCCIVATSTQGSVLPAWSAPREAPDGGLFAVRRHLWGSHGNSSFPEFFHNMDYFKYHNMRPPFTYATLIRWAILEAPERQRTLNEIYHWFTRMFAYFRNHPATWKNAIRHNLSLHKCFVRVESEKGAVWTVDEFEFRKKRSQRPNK

Sequence	binding signal (RPM ratio (pull-down/input))
GATGATTGTTCTCCCAGCTGATGAATTCGCATTTTCGAGTAAACAAATTTTCCTAATCTTTCTGTTCAAGCGCCATCTAC	4.25
GATGATTGTTCTCCCAGCTGATGAATTAGTCCCCTCGAGTAAACAAATTTTCCTAATCTTTCTGTTCAAGCGCCATCTAC	0.589
GATGATTGTTCTCCCAGCTGATGAATTTGGTCAGTCGAGTAAACAAATTTTCCTAATCTTTCTGTTCAAGCGCCATCTAC	0.311
GATGATTGTTCTCCCAGCTGATGAATTGCACGTCTCGAGTAAACAAATTTTCCTAATCTTTCTGTTCAAGCGCCATCTAC	1.03
GATGATTGTTCTCCCAGCTGATGAATTAGAGGGGTCGAGTAAACAAATTTTCCTAATCTTTCTGTTCAAGCGCCATCTAC	0.394
GATGATTGTTCTCCCAGCTGATGAATTCACGGCATCGAGTAAACAAATTTTCCTAATCTTTCTGTTCAAGCGCCATCTAC	0.723
GATGATTGTTCTCCCAGCTGATGAATTCCCCATTTCGAGTAAACAAATTTTCCTAATCTTTCTGTTCAAGCGCCATCTAC	0.267
GATGATTGTTCTCCCAGCTGATGAATTCCAGGTGTCGAGTAAACAAATTTTCCTAATCTTTCTGTTCAAGCGCCATCTAC	0.478
GATGATTGTTCTCCCAGCTGATGAATTATAAGCCTCGAGTAAACAAATTTTCCTAATCTTTCTGTTCAAGCGCCATCTAC	0.453
GATGATTGTTCTCCCAGCTGATGAATTACATACATCGAGTAAACAAATTTTCCTAATCTTTCTGTTCAAGCGCCATCTAC	1.07
GATGATTGTTCTCCCAGCTGATGAATTATCATCTTCGAGTAAACAAATTTTCCTAATCTTTCTGTTCAAGCGCCATCTAC	0.605
GATGATTGTTCTCCCAGCTGATGAATTCTACGTATCGAGTAAACAAATTTTCCTAATCTTTCTGTTCAAGCGCCATCTAC	0.491
GATGATTGTTCTCCCAGCTGATGAATTAGAACGATCGAGTAAACAAATTTTCCTAATCTTTCTGTTCAAGCGCCATCTAC	0.211
GATGATTGTTCTCCCAGCTGATGAATTAGGCTCGTCGAGTAAACAAATTTTCCTAATCTTTCTGTTCAAGCGCCATCTAC	0.572
GATGATTGTTCTCCCAGCTGATGAATTCACCATTTCGAGTAAACAAATTTTCCTAATCTTTCTGTTCAAGCGCCATCTAC	0.406
GATGATTGTTCTCCCAGCTGATGAATTATTGCTGTCGAGTAAACAAATTTTCCTAATCTTTCTGTTCAAGCGCCATCTAC	0.856
GATGATTGTTCTCCCAGCTGATGAATTCGGCATTTCGAGTAAACAAATTTTCCTAATCTTTCTGTTCAAGCGCCATCTAC	5.91
GATGATTGTTCTCCCAGCTGATGAATTTGTGCCGTCGAGTAAACAAATTTTCCTAATCTTTCTGTTCAAGCGCCATCTAC	1.88
GATGATTGTTCTCCCAGCTGATGAATTCGCCGTGTCGAGTAAACAAATTTTCCTAATCTTTCTGTTCAAGCGCCATCTAC	0.538
GATGATTGTTCTCCCAGCTGATGAATTACTATACTCGAGTAAACAAATTTTCCTAATCTTTCTGTTCAAGCGCCATCTAC	0.498
GATGATTGTTCTCCCAGCTGATGAATTGTAATGGTCGAGTAAACAAATTTTCCTAATCTTTCTGTTCAAGCGCCATCTAC	0.799

Sequence	binding signal (RPM ratio (pull-down/input))
GATGATTGTTCTCCCAGCTGATGAATTACGTATTTCGAGTAAACAAATTTTCCTAATCTTTCTGTTCAAGCGCCATCTAC	2.14
GATGATTGTTCTCCCAGCTGATGAATTGGGTCAGTCGAGTAAACAAATTTTCCTAATCTTTCTGTTCAAGCGCCATCTAC	0.263
GATGATTGTTCTCCCAGCTGATGAATTTGAACTTTCGAGTAAACAAATTTTCCTAATCTTTCTGTTCAAGCGCCATCTAC	0.288
GATGATTGTTCTCCCAGCTGATGAATTGAGATAGTCGAGTAAACAAATTTTCCTAATCTTTCTGTTCAAGCGCCATCTAC	0.436
GATGATTGTTCTCCCAGCTGATGAATTAATCAGATCGAGTAAACAAATTTTCCTAATCTTTCTGTTCAAGCGCCATCTAC	0.222
GATGATTGTTCTCCCAGCTGATGAATTTAGCTCTTCGAGTAAACAAATTTTCCTAATCTTTCTGTTCAAGCGCCATCTAC	0.542
GATGATTGTTCTCCCAGCTGATGAATTCCCATAATCGAGTAAACAAATTTTCCTAATCTTTCTGTTCAAGCGCCATCTAC	0.258
GATGATTGTTCTCCCAGCTGATGAATTACCGCGATCGAGTAAACAAATTTTCCTAATCTTTCTGTTCAAGCGCCATCTAC	0.524
GATGATTGTTCTCCCAGCTGATGAATTAAGCTTGTCGAGTAAACAAATTTTCCTAATCTTTCTGTTCAAGCGCCATCTAC	2.78
GATGATTGTTCTCCCAGCTGATGAATTAGAGAACTCGAGTAAACAAATTTTCCTAATCTTTCTGTTCAAGCGCCATCTAC	0.229
GATGATTGTTCTCCCAGCTGATGAATTTCTTGATTCGAGTAAACAAATTTTCCTAATCTTTCTGTTCAAGCGCCATCTAC	0.43
GATGATTGTTCTCCCAGCTGATGAATTGACCTCGTCGAGTAAACAAATTTTCCTAATCTTTCTGTTCAAGCGCCATCTAC	0.289
GATGATTGTTCTCCCAGCTGATGAATTGGTCGAATCGAGTAAACAAATTTTCCTAATCTTTCTGTTCAAGCGCCATCTAC	0.299
GATGATTGTTCTCCCAGCTGATGAATTGTGTATCTCGAGTAAACAAATTTTCCTAATCTTTCTGTTCAAGCGCCATCTAC	6.36
GATGATTGTTCTCCCAGCTGATGAATTCAACCGCTCGAGTAAACAAATTTTCCTAATCTTTCTGTTCAAGCGCCATCTAC	0.233
GATGATTGTTCTCCCAGCTGATGAATTGAGAAGCTCGAGTAAACAAATTTTCCTAATCTTTCTGTTCAAGCGCCATCTAC	0.212
GATGATTGTTCTCCCAGCTGATGAATTACTGTGGTCGAGTAAACAAATTTTCCTAATCTTTCTGTTCAAGCGCCATCTAC	0.412
GATGATTGTTCTCCCAGCTGATGAATTCGGTTCTTCGAGTAAACAAATTTTCCTAATCTTTCTGTTCAAGCGCCATCTAC	0.963
GATGATTGTTCTCCCAGCTGATGAATTTGAAGTCTCGAGTAAACAAATTTTCCTAATCTTTCTGTTCAAGCGCCATCTAC	0.493
GATGATTGTTCTCCCAGCTGATGAATTTATCGTTTCGAGTAAACAAATTTTCCTAATCTTTCTGTTCAAGCGCCATCTAC	2.47
GATGATTGTTCTCCCAGCTGATGAATTCACAAACTCGAGTAAACAAATTTTCCTAATCTTTCTGTTCAAGCGCCATCTAC	0.364

Sequence	binding signal (RPM ratio (pull-down/input))
GATGATTGTTCTCCCAGCTGATGAATTAGAAAACTCGAGTAAACAAATTTTCCTAATCTTTCTGTTCAAGCGCCATCTAC	0.244
GATGATTGTTCTCCCAGCTGATGAATTCGTGTCGTCGAGTAAACAAATTTTCCTAATCTTTCTGTTCAAGCGCCATCTAC	1.17
GATGATTGTTCTCCCAGCTGATGAATTTTCTCGGTCGAGTAAACAAATTTTCCTAATCTTTCTGTTCAAGCGCCATCTAC	0.178
GATGATTGTTCTCCCAGCTGATGAATTATACCATTCGAGTAAACAAATTTTCCTAATCTTTCTGTTCAAGCGCCATCTAC	0.547
GATGATTGTTCTCCCAGCTGATGAATTGAATCAGTCGAGTAAACAAATTTTCCTAATCTTTCTGTTCAAGCGCCATCTAC	0.31
GATGATTGTTCTCCCAGCTGATGAATTCGCTAGCTCGAGTAAACAAATTTTCCTAATCTTTCTGTTCAAGCGCCATCTAC	0.479
GATGATTGTTCTCCCAGCTGATGAATTTCAATGGTCGAGTAAACAAATTTTCCTAATCTTTCTGTTCAAGCGCCATCTAC	0.455
GATGATTGTTCTCCCAGCTGATGAATTCAATGATTCGAGTAAACAAATTTTCCTAATCTTTCTGTTCAAGCGCCATCTAC	0.879
GATGATTGTTCTCCCAGCTGATGAATTACCACAATCGAGTAAACAAATTTTCCTAATCTTTCTGTTCAAGCGCCATCTAC	0.556
GATGATTGTTCTCCCAGCTGATGAATTCCTAATTTCGAGTAAACAAATTTTCCTAATCTTTCTGTTCAAGCGCCATCTAC	0.286
GATGATTGTTCTCCCAGCTGATGAATTGTGTTCATCGAGTAAACAAATTTTCCTAATCTTTCTGTTCAAGCGCCATCTAC	1.77
GATGATTGTTCTCCCAGCTGATGAATTGAGTAACTCGAGTAAACAAATTTTCCTAATCTTTCTGTTCAAGCGCCATCTAC	1.15
GATGATTGTTCTCCCAGCTGATGAATTCCCGGAATCGAGTAAACAAATTTTCCTAATCTTTCTGTTCAAGCGCCATCTAC	0.137
GATGATTGTTCTCCCAGCTGATGAATTGTGCATTTCGAGTAAACAAATTTTCCTAATCTTTCTGTTCAAGCGCCATCTAC	7.44
GATGATTGTTCTCCCAGCTGATGAATTCTTAGTCTCGAGTAAACAAATTTTCCTAATCTTTCTGTTCAAGCGCCATCTAC	0.339
GATGATTGTTCTCCCAGCTGATGAATTGGACCATTCGAGTAAACAAATTTTCCTAATCTTTCTGTTCAAGCGCCATCTAC	0.374
GATGATTGTTCTCCCAGCTGATGAATTTAGGCCCTCGAGTAAACAAATTTTCCTAATCTTTCTGTTCAAGCGCCATCTAC	0.674
GATGATTGTTCTCCCAGCTGATGAATTATACATGTCGAGTAAACAAATTTTCCTAATCTTTCTGTTCAAGCGCCATCTAC	0.765
GATGATTGTTCTCCCAGCTGATGAATTCAGAAACTCGAGTAAACAAATTTTCCTAATCTTTCTGTTCAAGCGCCATCTAC	0.477
GATGATTGTTCTCCCAGCTGATGAATTTTGCCCGTCGAGTAAACAAATTTTCCTAATCTTTCTGTTCAAGCGCCATCTAC	2.4
GATGATTGTTCTCCCAGCTGATGAATTCGTACCGTCGAGTAAACAAATTTTCCTAATCTTTCTGTTCAAGCGCCATCTAC	0.483
